Data reported in publication PMC9098178, “SAR of Novel 3-Arylisoquinolinones: meta-Substitution on the Aryl Ring Dramatically Enhances Antiproliferative Activity through Binding to Microtubules” (Journal of Medicinal Chemistry, 2022).
Read-outs that look alike come from different tables or passages of the source.

Legend:
A549 = assay: SRB antiproliferative assay, A549; format: cell-based; conditions: Homo sapiens
Procedure: In light of this substantial change in activity between the meta and para compounds, a more comprehensive analysis of the antiproliferative activity was performed for the meta-/para-3-arylisoquinolinone pairs 2 and 3, 4, and 5, as well as 6. A panel of breast (MDA-MB-231), liver (HepG2, SNU423), lung (A549), and colon (HCT116) cancer cell lines were treated with the five 3-arylisoquinolinone analogs for 96 h followed by the SRB assay. The dose–response curves (including those for MCF-7) are presented in Figure S22, and their relevant IC50 values are listed in Table 1. […] The differential activity between meta- and para-3-arylisoquinolinones was reproduced in the National Cancer Institute (NCI) one-dose screen using a panel of 59 cancer cell lines (Figure S23).
All cell lines used in the study were human-derived and purchased from ATCC (Manassas, USA). […]
Screening of the antiproliferative activity of 3-arylisoquinolinones was performed using the SRB assay as previously described.[56] […] Finally, the cellular protein-bound SRB was thoroughly dissolved in 10 mM Tris base, and the OD values were read at 510 nm using a plate reader (μQuant Microplate Spectrophotometer, Biotek, U.K.) coupled with Gen5 software (BioTek, U.K.). […] Cell growth was calculated using the following formula: cell growth (%) = (ODtest/ODcontrol) × 100.

SNU423 cells = assay: Annexin V/PI apoptosis assay; format: cell-based, human; conditions: 0.5 and 1 μM, 24 h
Procedure: SNU423 (2 × 10^5) cells were seeded into 6 cm dishes and incubated overnight. The culture medium was then changed with a fresh one (to get rid of any floating, potentially dead cells) followed by 24 h treatment with 4 (0.5, 1 μM). Floating and attached cells were then collected, washed with cold PBS, and washed with Annexin V binding buffer (ABB; BD Pharmingen, Cat# 556454). Next, the cell pellets were incubated with 2% (v/v) APC-conjugated Annexin V (prepared in ABB; BD Pharmingen, Cat# 550474) for 10 min at RT in the dark. Following washing with ABB, the cell pellets were resuspended in 300 μL of 0.5 μg/mL PI (prepared in ABB), kept on ice, and protected from light. Finally, the cells were promptly analyzed with flow cytometry, where the fluorescence data were collected from 10 000 single cells following gating (see Figure S27) and plotted onto quadrant graphs to determine the percentages of different cell populations. The bottom left and top left quadrants indicate live (Annexin Vl^ow/PI^low) and necrotic (Annexin Vl^ow/PI^high) cells, respectively. Further, the bottom right and top right quadrants represent early apoptotic (Annexin Vl^high/PI^low) and late apoptotic/necrotic (Annexin Vl^high/PI^high) cells, respectively.

O=c1[nH]c(-c2cccc(F)c2)cc2cc(F)ccc12 [compound 4, 6-Fluoro-3-(3-fluorophenyl)isoquinolin-1(2H)-one]
IC50 (A549; 24 h +drug/72 h –drug treatment, read-out: mean IC50 ± SEM, A549): 440 ± 80 nM | IC50 (A549; 96 h treatment, mean ± SEM, read-out: IC50 A549): 270 ± 60 nM | early apoptotic cells versus control (SNU423 cells): significant increase | late apoptotic cells versus control (SNU423 cells): significant increase
